# According to the supplement of paper PMC11417369:
# The other results are listed elsewhere or left out.
# System: PF3D7_0420300 AP2 domain 1 (GST-tagged)
# Experiment: gcPBM binding intensity (ln(normalized median fluorescence intensity)); higher = stronger DNA binding
# Procedure, shortened: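 Each value is the highest Masliner-normalised natural-log median intensity across replicate spots of either orientation of a probe. The probes were primer-extended double-stranded 36-bp intergenic genomic sequences on an Agilent 4 × 180k array, alongside negative controls, exposed for 1 h to GST-tagged P. falciparum DNA-binding domains expressed in E. coli. Bound protein was picked up with Alexa488 anti-GST antibody and scanned at 488 nm.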
row,Sequence,gcPBM binding intensity (ln)
1,AACAACATTTTGTAATGTACATATTTACTTATATTC [XGTACX_site7251],9.15
2,CAGATAGACTTATATGCATGCATTCACATACCAACA [TGCATGCA_site163],9.27
3,GGTTAACATAAATATATACACACCAATGATGGCATT [CACACA_site1568],9.36
4,TGAAAAGTAAAATACACACACATAATCTAATTTATA [CACACA_site7024],9.65
5,CCTCTTAATATGTGCACACTAAATTATAACATAATT [CACACA_site3259],9.37
6,TATTTGTTTTTATATAGTACATAAATATATATATAT [XGTACX_site7834],9.28
7,AAAATAAATATGAACACACACATTTATGCCTTTAAA [CACACA_site1271],9.66
8,TATATACAAAAAATATGTACATATATATATATATAT [XGTACX_site3497],9.21
9,AGAGATATAAGAAAAGCACACACACCCAAAAAAAAA [CACACA_site8917],9.92
10,AAAAAATAAATAAATACACACACACTAATATATATA [CACACA_site8488],10.1
11,ATTATTTATATTATGGTGCATAATTTTGGGTTTCTT,9.57
12,TATATTATTTATTTTTGTACATATTATGAATGAATA [XGTACX_site3971],9.1
13,TTACCTTTAAATGGATGTACAGAAATTTAAATTGTT [XGTACX_site7044],9.07
14,CTTCCTTCTAAATGCACACGGAAAGTATAAATGTAT [CACACA_site2501],9.25
15,TTTTTTTTTTTAAATACATGCATGTCCTATTTAAAT [TGCATGCA_site494],9.07
16,TTTTTTTGATAAAAGGTGCTACAAGATGAATACATA,9.04
17,ATAAATAAAAAAAAAAAAAAAAAAAAAAAAAAAATA [CACACA_negctrl_site1064],9.26
18,GTTGTATAAAATAATACATGCATGTCCTACATATAT [TGCATGCA_site162],9.5
19,GTAATATATTTTTATGGTACACGAACTAGCCAAAAA [XGTACX_site6307],9.27
20,TAATATATTTATAAGTGTACACATTATATAAATCCC [XGTACX_site8875],9.25
21,CCGCATTTTACAGACACACACAATTTATATTACGGT [CACACA_site6974],9.61
22,AGTAATAACTATATATGTACATATATATATTATTAG [XGTACX_site1113],9.23
23,TCAGAGTGAAGTTATACACACATGGTTTTTTTTTTT [CACACA_site2116],9.47

row,Sequence,gcPBM binding intensity (ln)
1,AGAGAGAAAGCTATAACATGCAACAATTTTTAGAAA [TGCATGCA_site95],9.27
2,AGGAGGATATTACACAGTACCCAGTAACTCTACGGA [XGTACX_site1998],9.2
3,AAGTATGCGTTATATACACACATACATTTATATATC [CACACA_site6207],9.47
4,TTCTAATATTTACATAATATATAGAAATATAAAGGT [XGTACX_negctrl_site504],9.15
5,AAATATAAACTCAGCACACAAACATATATATGTCAT [CACACA_site4004],9.65
6,TTTTTTTTTTTTTCTCGTACAAAATAATACCTTTTT [XGTACX_site3867],8.91
7,ATGGTATAAAAAAATACACACTTATATATATTCTTA [CACACA_site4427],9.36
8,GTAGACATTATAATGGTGCAAAAAAATTAACAAAAA [GTGCAC_site9891],9.17
9,AAAAAAAACGGACACACACACATACAAAATATATAT [CACACA_site4910],10.2
10,AGGGAATATTTTTATGCATGTGCTTACACATTACAA [TGCATGCA_site830],9.24
11,AAAAAAAAAAAAAAAAAAAAATATATATATATATAT [GTGCAC_negctrl_site426],9.06
12,AAAAGTATAATAAATTGTACTAACAAATATTTATGT [XGTACX_site7721],9.26
13,TAAAATTTTGTTTGTTGTACTTATTTTCGTGTCAAC [XGTACX_site8277],9.22
14,AAAGATGAATTTTTTACACACACCATTTTATAATAT [CACACA_site3676],9.75
15,AATGTAAAACCTCCTACACACACCAATTAACTATTC [CACACA_site2112],9.84
16,TACTTATCGTTAAATTGTACTAAAAAATATTTTTCT [XGTACX_site4665],9.17
17,AAAAAAGAAGAGCACACACACATATATAAATATAAA [CACACA_site631],10
18,TTATAATAAAAGGCTTTACAATTATTAAACAAATAA [GTGCAC_negctrl_site480],8.98
19,GCCATTGTACCATCCACACACATATATATCTGTATA [CACACA_site5490],10.1
20,TGGTATTAAGGAGAGGGTACAAAAAAAAAAAAAAAA [XGTACX_site1668],8.65
21,TATATATATATATATACACACATATATATATTTTTC [CACACA_site3983],9.35
22,AATTTAAAGAATTGTAGTACAATGAAATATATATAA [XGTACX_site7970],9.22
23,CATTAAACCGTGGGAGCACACACACCCACCCACCCA [CACACA_site8000],9.87

row,Sequence,gcPBM binding intensity (ln)
1,ATCATTATATTATGGTGTACCCATATATAATTATCA [XGTACX_site551],9.19
2,AACAATGGATTATTCACACATAAAAAAATTCACATT [CACACA_site5437],9.29
3,AATACCTATGGAATTAATAATATGTGTACAGACACA [TGCATGCA_negctrl_site547],9.24
4,AAAAAAATATATATATGTACATAACTTTGTTGTGAT [XGTACX_site5243],9.32
5,TGTTAAATTATTTATCAGATTATTATTTGTAAATAA [CACACA_negctrl_site1535],8.74
6,TTTGAACATTTTGCAAGTACAAAAAAATAATATATC [XGTACX_site8079],9.08
7,AAGAAAAGCATAGATGCACACATATATATATATATA [CACACA_site8675],9.58
8,GGAACTTAAAAAAAATGTACTTATAAAAAAGGAAAT [XGTACX_site8186],9.17
9,AACATGCAAACATGCACACAGAAAAAAAAAATATAT [CACACA_site1565],9.51
10,TTACACATACATATGTGGGAAAATATTGCTACATAT [CACACA_negctrl_site463],9.36
11,AAAAATGGTGTTAACACACACATATAAATAAATATA [CACACA_site6412],9.33
12,AAGGATCACCCACAAACACACATATATATATATATA [CACACA_site559],9.76
13,TAAATGTGAAATTTTATATTTTATATAATATACAAT [CACACA_negctrl_site76],8.88
14,AACATAAGTAATATTTGTACATATATAATAATATAT [XGTACX_site5123],9.31
15,ATCATATTTTTATGTGTGCACTTTTTTTTTTTTTTT [GTGCAC_site9555],9.54
16,CTCTTATACATATTCCTGCACTTATTTTTAAAAACA [GTGCAC_site9620],9.36
17,AAGAAAAATAATTAGGGTGAAAATATATAGAGTAAA [TGCATGCA_negctrl_site590],9.39
18,ACACATATATATATATATATATATATATATATATAT [CACACA_negctrl_site1766],9
19,CAATTCTTAAGTTCTTGTACGAAAAACGACAATTTA [XGTACX_site3890],8.81
20,TATTATATAAAATATTTTATTATATCATCTTCTCTA [XGTACX_negctrl_site319],9.04
21,GGTAATAATATGCATAGTACATAATATATATATATA [XGTACX_site6793],9.28
22,ATAATATAAATAATTATACACACTTAATATATATAT [CACACA_site2782],9.36
23,GTATGTATGTATGTATGTACGTATTTATTTATTTAA [XGTACX_site726],9.24

row,Sequence,gcPBM binding intensity (ln)
1,CACAAAAATTTATACACACACATATAAAATATAGAT [CACACA_site6218],9.93
2,TTCACTATACAAAGGTGTACTTAATTTTGTCCCATT [XGTACX_site7483],9.29
3,AGTTATTACACACAAACATGCATTAATATCAAAAAA [TGCATGCA_site63],9.64
4,AAATATATATATAGTACATGCAGTAGATAATTTAAT [TGCATGCA_site299],9.51
5,ATTAGGTATTTTTTTTGTACATATTATATAATGTGA [XGTACX_site3815],9.33
6,TAATTTTATATAAATTGTACAAAAATATTTTATTAA [XGTACX_site7166],8.76
7,TGCAGGTGTTATTCACGTACGCATTTGATTAAAAAA [XGTACX_site7743],8.96
8,TAAAATATACAAATTTGTACATATATATGTATGTAT [XGTACX_site1127],9.33
9,ATAAAAACATAAAAATGTACATATATATATATATAT [XGTACX_site7165],9.23
10,ATTAGAAAATAAAATAATAAATAAAATAAAAAAAAA [CACACA_negctrl_site409],9.37
11,TTTTATTTTATTCAATTTTTACTTTTATAAAAATAT [GTGCAC_negctrl_site578],9.04
12,AATATTAGGTTATGTAGTACATAACAATAATTATAC [XGTACX_site5733],9.29
13,GTGTTGGGAAAAGGCATGCACTTTTTTTTTTTTTTT,9.23
14,ATGTATATGCAAACATGTACATATATAAACATATAT [XGTACX_site4159],9.16
15,AAGGAATATGTATATACACACAGGTACATATTTATA [CACACA_site6344],9.53
16,ATAAAGAATATAAATACACACTTAAATATATATTAT [CACACA_site6071],9.53
17,TTTATATTTAAAAGGATGCACTACAAATTCTAAATA,9.08
18,TATCCTTATATTTGCACACACACACCCTAAAATGAA [CACACA_site1029],10.1
19,AAGACAAATATGAAGAGTACATTTATATAAAAATTA [XGTACX_site5142],9.24
20,CTACAATATCTTTAAAGTACTTTTATATAACTACCA [XGTACX_site6119],9.14
